B1: fusion protein molecule 049 (Format 2: IL-21-004 linked to the C-terminus of the anti-PD-1 antibody heavy chain) (other)
heavy: QVQLVQSGAEVKKPGSSVKVSCKASGGTFSSYAISWVRQAPGQGLEWMGLIIPMFDTAGYAQKFQGRVAITVDESTSTAYMELSSLRSEDTAVYYCARAEHSSTGTFDYWGQGTLVTVSSASTKGPSVFPLAPSSKSTSGGTAALGCLVKDYFPEPVTVSWNSGALTSGVHTFPAVLQSSGLYSLSSVVTVPSSSLGTQTYICNVNHKPSNTKVDKKV[letters of human IgG1 Fc with changes omitted]HKSDITLQEMRQLIDIVDQLKNYVNDLVPEFLPAPEDVETNCEWSAFSCFQKAQLKSANTGNNERIINVSIKKLKRKPPSTNAGRRQKHRLTCPSCDSYEKKPPKEFLERFKSLLQKMIHQHLSSRTHGSEDS
light: DIQMTQSPSSVSASVGDRVTITCRASQGISSWLAWYQQKPGKAPKLLISAASSLQSGVPSRFSGSGSGTDFTLTISSLQPEDFATYYCQQANHLPFTFGGGTKVEIKRTVAAPSVFIFPPSDEQLKSGTASVVCLLNNFYPREAKVQWKVDNALQSGNSQESVTEQDSKDSTYSLSSTLTLSKADYEKHKVYACEVTHQGLSSPVTKSFNRGEC
B2: fusion protein molecule 053 (Format 3: IL-21-004 linked via (G4S)3 to the C-terminus of the knob heavy chain of the anti-PD-1 antibody) (other)
heavy 1: QVQLVQSGAEVKKPGSSVKVSCKASGGTFSSYAISWVRQAPGQGLEWMGLIIPMFDTAGYAQKFQGRVAITVDESTSTAYMELSSLRSEDTAVYYCARAEHSSTGTFDYWGQGTLVTVSSASTKGPSVFPLAPSSKSTSGGTAALGCLVKDYFPEPVTVSWNSGALTSGVHTFPAVLQSSGLYSLSSVVTVPSSSLGTQTYICNVNHKPSNTKVDKKV[letters of human IgG1 Fc with changes omitted]GGGGSGGGGSGGGGSHKSDITLQEMRQLIDIVDQLKNYVNDLVPEFLPAPEDVETNCEWSAFSCFQKAQLKSANTGNNERIINVSIKKLKRKPPSTNAGRRQKHRLTCPSCDSYEKKPPKEFLERFKSLLQKMIHQHLSSRTHGSEDS
heavy 2: QVQLVQSGAEVKKPGSSVKVSCKASGGTFSSYAISWVRQAPGQGLEWMGLIIPMFDTAGYAQKFQGRVAITVDESTSTAYMELSSLRSEDTAVYYCARAEHSSTGTFDYWGQGTLVTVSSASTKGPSVFPLAPSSKSTSGGTAALGCLVKDYFPEPVTVSWNSGALTSGVHTFPAVLQSSGLYSLSSVVTVPSSSLGTQTYICNVNHKPSNTKVDKKVEPKSCDKTHTCPPCPAPEAAGGPSVFLFPPKPKDTLMISRTPEVTCVVVDVSHEDPEVKFNWYVDGVEVHNAKTKPREEQYNSTYRVVSVLTVLHQDWLNGKEYKCKVSNKALPAPIEKTISKAKGQPREPQVCTLPPSRDELTKNQVSLSCAVKGFYPSDIAVEWESNGQPENNYKTTPPVLDSDGSFFLVSKLTVDKSRWQQGNVFSCSVMHEALHNHYTQKSLSLSPGK
light: B1 light
B3: fusion protein molecule 061 (Format 3: IL-21-028 linked via (G4S)3 to the C-terminus of the knob heavy chain of the anti-PD-1 antibody) (other)
heavy 1: QVQLVQSGAEVKKPGSSVKVSCKASGGTFSSYAISWVRQAPGQGLEWMGLIIPMFDTAGYAQKFQGRVAITVDESTSTAYMELSSLRSEDTAVYYCARAEHSSTGTFDYWGQGTLVTVSSASTKGPSVFPLAPSSKSTSGGTAALGCLVKDYFPEPVTVSWNSGALTSGVHTFPAVLQSSGLYSLSSVVTVPSSSLGTQTYICNVNHKPSNTKVDKKV[letters of human IgG1 Fc with changes omitted]GGGGSGGGGSGGGGSQGQDRHMIRMRQLIDIVDNLTNYVNDLVPEFLPAPEDVETNAEWSAFSCFQKAQLKSANTGNNERIINVSIKKLKRKPPSTNATTPSCDSYEKKPPKEFLERFKSLLQKMIHQHLSSRTHGSEDS
heavy 2: B2 heavy 2
light: B1 light
B4: fusion protein molecule 063 (Format 3: IL-21-030 linked via (G4S)3 to the C-terminus of the knob heavy chain of the anti-PD-1 antibody) (other)
heavy 1: QVQLVQSGAEVKKPGSSVKVSCKASGGTFSSYAISWVRQAPGQGLEWMGLIIPMFDTAGYAQKFQGRVAITVDESTSTAYMELSSLRSEDTAVYYCARAEHSSTGTFDYWGQGTLVTVSSASTKGPSVFPLAPSSKSTSGGTAALGCLVKDYFPEPVTVSWNSGALTSGVHTFPAVLQSSGLYSLSSVVTVPSSSLGTQTYICNVNHKPSNTKVDKKV[letters of human IgG1 Fc with changes omitted]GGGGSGGGGSGGGGSHKSDITLQEMRQLIDIVDQLKNYVNDLVPEFLPAPEDVETNCEWSAFSCFQKAQLKSANTGNNERIINVSIKKLKRKPPSTNAGRRQKHRLTCPSCDSYEKKPPKEFLERFKSLLQNMTHQHLSSRTHGSEDS
heavy 2: B2 heavy 2
light: B1 light
B5: fusion protein molecule 054 (Format 3: IL-21-005 linked via (G4S)3 to the C-terminus of the knob heavy chain of the anti-PD-1 antibody) (other)
heavy 1: QVQLVQSGAEVKKPGSSVKVSCKASGGTFSSYAISWVRQAPGQGLEWMGLIIPMFDTAGYAQKFQGRVAITVDESTSTAYMELSSLRSEDTAVYYCARAEHSSTGTFDYWGQGTLVTVSSASTKGPSVFPLAPSSKSTSGGTAALGCLVKDYFPEPVTVSWNSGALTSGVHTFPAVLQSSGLYSLSSVVTVPSSSLGTQTYICNVNHKPSNTKVDKKV[letters of human IgG1 Fc with changes omitted]GGGGSGGGGSGGGGSHKSDITLQEIIKTLNIVDQLKNYVNDLVPEFLPAPEDVETNCEWSAFSCFQKAQLKSANTGNNERIINVSIKKLKRKPPSTNAGRRQKHRLTCPSCDSYEKKPPKEFLERFKSLLQKMIHQHLSSRTHGSEDS
heavy 2: B2 heavy 2
light: B1 light
B6: fusion protein molecule 055 (Format 3: IL-21-006 linked via (G4S)3 to the C-terminus of the knob heavy chain of the anti-PD-1 antibody) (other)
heavy 1: QVQLVQSGAEVKKPGSSVKVSCKASGGTFSSYAISWVRQAPGQGLEWMGLIIPMFDTAGYAQKFQGRVAITVDESTSTAYMELSSLRSEDTAVYYCARAEHSSTGTFDYWGQGTLVTVSSASTKGPSVFPLAPSSKSTSGGTAALGCLVKDYFPEPVTVSWNSGALTSGVHTFPAVLQSSGLYSLSSVVTVPSSSLGTQTYICNVNHKPSNTKVDKKV[letters of human IgG1 Fc with changes omitted]GGGGSGGGGSGGGGSHKSDITLQEIIKLIDIVDQLKNYVNDLVPEFLPAPEDVETNCEWSAFSCFQKAQLKSANTGNNERIINVSIKKLKRKPPSTNAGRRQKHRLTCPSCDSYEKKPPKEFLERFKSLLQKMIHQHLSSRTHGSEDS
heavy 2: B2 heavy 2
light: B1 light
B7: fusion protein molecule 059 (Format 3: IL-21-027 linked via (G4S)3 to the C-terminus of the knob heavy chain of the anti-PD-1 antibody) (other)
heavy 1: QVQLVQSGAEVKKPGSSVKVSCKASGGTFSSYAISWVRQAPGQGLEWMGLIIPMFDTAGYAQKFQGRVAITVDESTSTAYMELSSLRSEDTAVYYCARAEHSSTGTFDYWGQGTLVTVSSASTKGPSVFPLAPSSKSTSGGTAALGCLVKDYFPEPVTVSWNSGALTSGVHTFPAVLQSSGLYSLSSVVTVPSSSLGTQTYICNVNHKPSNTKVDKKV[letters of human IgG1 Fc with changes omitted][letters of about 150 residues omitted]
heavy 2: B2 heavy 2
light: B1 light
B8: fusion protein molecule 064 (Format 3: IL-21-031 linked via (G4S)3 to the C-terminus of the knob heavy chain of the anti-PD-1 antibody) (other)
heavy 1: QVQLVQSGAEVKKPGSSVKVSCKASGGTFSSYAISWVRQAPGQGLEWMGLIIPMFDTAGYAQKFQGRVAITVDESTSTAYMELSSLRSEDTAVYYCARAEHSSTGTFDYWGQGTLVTVSSASTKGPSVFPLAPSSKSTSGGTAALGCLVKDYFPEPVTVSWNSGALTSGVHTFPAVLQSSGLYSLSSVVTVPSSSLGTQTYICNVNHKPSNTKVDKKV[letters of human IgG1 Fc with changes omitted]GGGGSGGGGSGGGGSHKSDITLQEMRQLIDIVDQLKNYVNDLVPEFLPAPENVTTNCEWSAFSCFQKAQLKSANTGNNERIINVSIKKLKRKPPSTNAGRRQKHRLTCPSCDSYEKKPPKEFLERFKSLLQKMIHQHLSSRTHGSEDS
heavy 2: B2 heavy 2
light: B1 light

Biological target: IL-21 receptor on the surface of T cells (HuT78 and HuT78-GFP-PD1 cells) (UniProt Q9HBE5 20-538; P31785 23-369)
Assay: cell-based or functional assay

UniProt Q9HBE5, sequence (Q9HBE5 20-538, chain 1 of 2): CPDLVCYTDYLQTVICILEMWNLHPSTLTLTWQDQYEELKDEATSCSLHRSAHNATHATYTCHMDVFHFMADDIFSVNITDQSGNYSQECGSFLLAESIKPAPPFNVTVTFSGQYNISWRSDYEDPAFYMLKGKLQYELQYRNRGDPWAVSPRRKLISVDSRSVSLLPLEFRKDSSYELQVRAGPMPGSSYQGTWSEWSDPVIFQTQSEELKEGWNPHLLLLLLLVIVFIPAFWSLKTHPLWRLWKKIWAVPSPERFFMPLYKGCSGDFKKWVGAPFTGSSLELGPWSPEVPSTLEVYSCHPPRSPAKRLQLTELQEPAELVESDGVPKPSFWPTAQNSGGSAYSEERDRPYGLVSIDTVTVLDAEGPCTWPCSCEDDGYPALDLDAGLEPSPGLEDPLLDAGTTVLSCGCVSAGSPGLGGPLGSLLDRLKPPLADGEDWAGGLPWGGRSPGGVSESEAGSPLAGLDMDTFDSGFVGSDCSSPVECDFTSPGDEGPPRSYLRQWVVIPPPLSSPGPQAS
UniProt Q9HBE5, sequence (P31785 23-369, chain 2 of 2, further chain): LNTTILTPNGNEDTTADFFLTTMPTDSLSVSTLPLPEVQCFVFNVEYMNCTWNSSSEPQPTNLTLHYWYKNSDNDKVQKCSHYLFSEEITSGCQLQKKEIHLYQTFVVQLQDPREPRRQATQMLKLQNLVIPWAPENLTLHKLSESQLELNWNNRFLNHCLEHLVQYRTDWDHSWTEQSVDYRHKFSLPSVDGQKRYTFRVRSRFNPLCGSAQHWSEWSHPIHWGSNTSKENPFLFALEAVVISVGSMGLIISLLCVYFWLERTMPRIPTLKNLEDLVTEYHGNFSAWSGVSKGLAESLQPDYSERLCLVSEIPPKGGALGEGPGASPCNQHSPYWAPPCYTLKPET

In order of rising “EC50 (nM) of STAT3 phosphorylation, PD1-Positive HuT78-GFP-PD1 cells” value:
1. B2  0.0339 nM
2. B5  0.0431 nM
3. B6  0.0921 nM
4. B4  0.822 nM
5. B3  0.831 nM
6. B1  1.53 nM
7. B8  3.04 nM
8. B7  5.33 nM

In the case of B1, the “EC50 (nM) of STAT3 phosphorylation, PD1-negative HuT78 cells” value is reported as about 4380 nM.

From patent US20240043487A1 (Innovent, published 2024)
